According to PubChem BioAssay AID1745853 (National Center for Advancing Translational Sciences (NCATS), 2022):
The other results are listed elsewhere or left out. These are further read-outs of the screen, such as a control signal, another cell line or another target. No call is given for them.

Columns and labels:
Test in all cases: Primary Screen for Target Class Profiling of Small Molecule Inhibitors of Methyltransferases
[1] = biological target: Glycine N-methyltransferase (Homo sapiens) (UniProt Q14749); conditions: purified enzyme, MTase-Glo SAH luminescence; measured here: GNMT inhibition; at 40 µM; stronger effect = lower value
Outline: (§1)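 Each enzyme was reacted with SAM and its substrate, with compounds tested once at 40 uM; SAH formed was read by MTase-Glo luminescence.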

[2] = biological target: Guanidinoacetate N-methyltransferase (Homo sapiens) (UniProt Q14353); conditions: purified enzyme, MTase-Glo SAH luminescence; measured here: GAMT inhibition; at 40 µM; stronger effect = lower value
Outline: as §1

[3] = biological target: Histamine N-methyltransferase (Homo sapiens) (UniProt P50135); conditions: purified enzyme, MTase-Glo SAH luminescence; measured here: HNMT inhibition; at 40 µM; stronger effect = lower value
Outline: as §1

[4] = biological target: Nicotinamide N-methyltransferase (Homo sapiens) (UniProt P40261); conditions: purified enzyme, MTase-Glo SAH luminescence; measured here: NNMT inhibition; at 40 µM; stronger effect = lower value
Outline: as §1

[5] = biological target: Phenylethanolamine N-methyltransferase (Homo sapiens) (UniProt P11086); conditions: purified enzyme, MTase-Glo SAH luminescence; measured here: PNMT inhibition; at 40 µM; stronger effect = lower value
Outline: as §1
On the % scale 0 is the no-effect control and ±100 the full control effect.

| Structure (SMILES) | activity change, negative = inhibition [1] [%] | activity change, negative = inhibition [2] [%] | activity change, negative = inhibition [3] [%] | activity change, negative = inhibition [4] [%] | activity change, negative = inhibition [5] [%] |
| --- | --- | --- | --- | --- | --- |
| Cc1ncsc1CCC(=O)N1CC[C@@H]2[C@@H](CCC(=O)N2CCN)C1 | -4.43 | -6.42 | -1.28 | -10.9 | -6.51 |
| CCC(C(=O)N1CCN(c2ncccn2)CC1)n1ccc2cc(S(=O)(=O)N3CCCCC3)ccc21 (stereo not drawn) | 0.464 | 4.82 | 2.43 | 2.99 | 3.44 |
| C=C1C(OC(C)=O)[C@@]23CCC4[C@](C)(C(=O)O)CCC[C@@]4(C)[C@]2(O)CC[C@H]1C3 (stereo partly drawn) | -5.82 | -4.98 | -5.91 | -15.1 | -13.4 |
| COc1ccc(CNC(=O)C2(C)Cn3cnc(C(=O)NCc4ccc(C)cc4)c3C(=O)N2C2CC2)cc1 (stereo not drawn) | -3.17 | 0.015 | 3.48 | 0.966 | 0.541 |
| CCOc1ccc(-n2c(C(C)N(Cc3cccnc3)C(=O)Cc3ccc(F)c(C(F)(F)F)c3)nc3ncccc3c2=O)cc1 (stereo not drawn) | -3.77 | 21.9 | 7.08 | -0.928 | 10.6 |
| CCOC(=O)c1cc2n(n1)CC(C)(C(=O)NC1CCCCCC1)N(c1ccc(F)cc1F)C2=O (stereo not drawn) | 3.38 | 1.31 | 1.25 | 10.5 | -0.064 |
| O=c1ccc2ccc(O)c(O)c2o1 | -12.5 | 8.81 | 9.63 | -3.8 | 2.78 |
| Cc1ccc(CNC(=O)CCn2ccc3cc(S(=O)(=O)N4CCCC4)ccc32)o1 | 4.55 | 1.58 | 4.37 | 7.98 | 3.67 |
| CCCC1c2ccc(C)n2CCN1C(=O)Nc1cccc(C)c1 (stereo not drawn) | 2.78 | -1.99 | -4 | 4.63 | -1.87 |
| CC(=O)N1CCN(C(=O)Cc2ccc(Nc3ncc(F)c(Nc4ccc(C(=O)Nc5ccccc5Cl)cc4)n3)cc2)CC1 | -6.69 | 21 | -8.98 | -10.4 | -3.79 |
| O=C(C1CCCN([S+](=O)([O-])c2cccs2)C1)N1CCC(c2nc3ncccc3[nH]2)CC1 (stereo not drawn) | -7.36 | -5.99 | -5.2 | -21.3 | -10.4 |
| CCCn1c(=O)c2ccc(C(=O)NC3CCCC3)cc2n2c(SCC(=O)NC3CCCCC3)nnc12 | 6.41 | 0 | 8.93 | 7.39 | 7.69 |
| COc1ccc(OC)c(S(=O)(=O)N2CC[C@@H]3COCCN(C)[C@@H]3C2)c1 | -5.85 | 1.97 | -0.889 | -4.08 | -5.61 |
| OCC1OC(Oc2cc(O)cc(/C=C/c3ccc(O)cc3)c2)C(O)C(O)C1O (stereo not drawn) | -5.09 |  | 5.4 |  |  |
| Cc1nn(C)c(C)c1CN(Cc1ccnc2ccccc12)C1CC1 | -12.4 | -5.8 | -5.88 | -26.4 | -11.5 |
| CSc1ccc(CNC(=O)c2cc3n(n2)CC(C)(C(=O)NCc2ccc(C)cc2)N(C)C3=O)cc1 (stereo not drawn) | -2.89 | -0.248 | -0.411 | -8.52 | -4.59 |
| Cc1ccc(CNC(=O)C2(C)Cn3cnc(C(=O)NCCc4ccc(Cl)cc4)c3C(=O)N2C2CC2)cc1 (stereo not drawn) | -7.23 | 0 | 5.48 | -7.5 | 0.008 |
| CCOC(=O)c1cc2n(n1)CC(C)(C(=O)NCCC(C)C)N(c1ccc(CC)cc1)C2=O (stereo not drawn) | -0.648 | 4.51 | 7.05 | -0.404 | -0.046 |
| CCCn1c(=O)c2ccccc2n2c(SCC(=O)NCc3ccc(OC)cc3)nnc12 | -5.23 | 2.68 | 1.95 | -0.96 | 0.849 |
| Cc1nc2c(c(-c3ccc(Cl)cc3)n1)CCN(C(=O)N(C)C)CC2 | -9.21 | -4.44 | 0.189 | -15.9 | -4.41 |

| Structure (SMILES) | activity change, negative = inhibition [1] [%] | activity change, negative = inhibition [2] [%] | activity change, negative = inhibition [3] [%] | activity change, negative = inhibition [4] [%] | activity change, negative = inhibition [5] [%] |
| --- | --- | --- | --- | --- | --- |
| Cn1cc(CN2CCN(C(c3ccccc3)c3ccccc3)CC2)cc1C#N |  | 3.53 |  | -29.3 | -0.164 |
| CCCN(CCC)C(=O)C(CCC(=O)O)NC(=O)c1ccccc1 (stereo not drawn) | -1.33 | 7.99 | 3.84 | -6.11 | 3 |
| CC1=C[C@@H]2[C@@H]([C@@H](O)C[C@@]3(C)[C@H]2C[C@@H](C)[C@]3(O)C(=O)CO)[C@@]2(C)Cc3cnn(-c4ccccc4)c3C=C12 | -16.9 | 0.117 | -3.89 | -24.3 | -0.588 |
| CCCn1c(=O)c2ccc(C(=O)NC3CCCC3)cc2n2c(SCC(=O)Nc3ccccc3C)nnc12 | 2.93 | 0 | 3.74 | -0.73 | 4.96 |
| Cc1c(Cl)cccc1N1C(=O)c2cc3sccc3n2CC1(C)C(=O)NC1CCCCCCC1 (stereo not drawn) | 1.71 | 4.22 | 3.36 | 7.4 | -0.405 |
| O=C(C[C@@H]1CCNC[C@@H]1Cc1cc(CN2CCCCC2)on1)N1CCN(c2ccccc2)CC1 | -0.041 | 0.627 | -2.77 | 5.1 | -0.431 |
| Cc1cccc(CNC(=O)C2(C)Cn3cnc(C(=O)NCc4ccc(F)cc4)c3C(=O)N2C2CC2)c1 (stereo not drawn) | 4.03 | 2.65 | 4.8 | -1.66 | 4.07 |
| CCn1c(=O)n(CC)c2cc(S(=O)(=O)Nc3cc(C)ccc3OC)c(Cl)cc21 | -4.51 | 3.04 | -4.72 | -1.24 | -3.69 |
| CC1CCN(C(=O)CCc2nnc3n(Cc4ccc(Cl)cc4)c(=O)c4ccccc4n23)CC1 | -10.3 | 0.478 | -12.5 | -4.63 | -10.5 |
| CN1CC(C(=O)N2CCN(Cc3ccccc3)CC2)NC1=O (stereo not drawn) | 0.187 | 0.792 | 1.67 | -1.55 | -1.57 |
| Cc1cccc(N2C(=O)c3cc4occc4n3CC2(C)C(=O)NC2CCCCC2C)c1C (stereo not drawn) | -1.62 | 0 | -0.094 | 7.03 | -1.59 |
| C=C1CCC2C(OC(=O)C2(O)COC(C)=O)C2C(=C)C(O)CC12 (stereo not drawn) | 0 | 2.52 | 5.08 | -8.88 | 5.12 |
| COc1cccc(OC)c1-c1nc(C(=O)N[C@@H](CC(C)C)C(=O)O)cn1-c1ccnc2cc(Cl)ccc12 | -0.178 | 0.628 | 8.53 | -19.8 | 0.189 |
| C[C@]1(CO)[C@H]2Cc3sc(-c4ccsc4)nc3[C@@H](CC(=O)Nc3cccc(O)c3)[C@]2(C)CC[C@H]1O | -15.5 | -10.3 | -21 | -15.4 | -27.9 |
| Nc1nc(N)c2nc(-c3cccc(O)c3)cnc2n1 |  | -3.34 |  | -20 | -23.7 |
| O=C(CCc1nnc2n(Cc3ccccc3Cl)c(=O)c3ccccc3n12)Nc1ccccc1 | -6.33 | -3.6 | -2.79 | -13 | -13.8 |
| Cc1ccc(Cn2c(=O)c3ccccc3n3c(-c4cccc(Cl)c4)nnc23)cc1 | -4.03 | 1.84 | 4.62 | -0.389 | -2.58 |
| COc1ccc(NC(=O)N2CC(N(CC(C)C)C3CCOCC3)C2)cc1F | -7.4 | -8.67 | -3.08 | -11.9 | -6.15 |
| O=C(N[C@H]1CO[C@H]2[C@@H]1OC[C@@H]2Nc1nccc(-c2ccc(-c3ccccc3)cc2)n1)C1CCCCC1 | -3.97 | -7.42 | -3.81 | -10.3 | -9.55 |
| CC(C)(C)c1nn2c(SCC(=O)Nc3ccc(Cl)cc3)nnc2[nH]c1=O | 6.16 | 0 | 9.63 | -2.81 | -4.12 |

| Structure (SMILES) | activity change, negative = inhibition [1] [%] | activity change, negative = inhibition [2] [%] | activity change, negative = inhibition [3] [%] | activity change, negative = inhibition [4] [%] | activity change, negative = inhibition [5] [%] |
| --- | --- | --- | --- | --- | --- |
| COc1ccc(-c2ccc(NC(=O)C3CCCC3)cc2)nn1 | -18.1 | -16.3 | -15 | -13.3 | -22.3 |
| CCc1cccc(NC(=O)Cn2nc3n(CC(C)C)c(=O)c4ccc(C(=O)NC(C)C)cc4n3c2=O)c1 | 1.96 | 0 | 8.2 | 4.06 | 6.32 |
| CN1CCC(=C2c3ccccc3CC(=O)c3sccc32)CC1 | -14.2 | 3.82 | -14.1 | -16.3 | 3.61 |
| COc1ccc(CN2CCCC(CNC(=O)NC(C)C)C2)cc1O (stereo not drawn) | 17.7 | 3.98 | 0.844 | 4.13 | -10.9 |
| O=C(Cn1ccc2cc(S(=O)(=O)N3CCCC3)ccc21)NCc1ccc2c(c1)OCO2 | 3.47 | 0.947 | -0.171 | -1.54 | -2.38 |
| OC[C@@H]1CNC[C@H]1C1CCN(C2CNC2)CC1 | -0.268 | 0.171 | -4.31 | -4.28 | 10.2 |
| COCC(=O)N1CCN(CC(=O)NCc2cccs2)[C@H]2CS(=O)(=O)C[C@H]21 | -4.83 | -4.57 | -3.27 | -9.49 | -0.824 |
| O=C([C@@H]1CNC[C@H](C(=O)N2CCN(c3ccncc3)CC2)C1)N1CCOCC1 | -0.289 | -0.181 | -35.7 | -3.39 | -2.53 |
| O=c1c2ccccc2n2c(-c3ccccc3)nnc2n1Cc1ccc(F)cc1 | -10.2 | 1.22 | -2.64 | -7.86 | -2.57 |
| Cc1ncc(Cl)cc1NCc1ccc(C(=O)NC(CC2CCCC2)C(=O)NC2CC2)s1 (stereo not drawn) | 3.45 | 5.53 | 2.08 | -17.2 | -3.08 |
| COc1ccccc1N1CCN(CC(O)COc2cccc3ccccc23)CC1 (stereo not drawn) | -11.8 | 0.806 | -2.99 | -14.8 | -5.13 |
| CC1(C(=O)NC2CCCC2)Cn2c(cc3sccc32)C(=O)N1Cc1ccccc1F (stereo not drawn) | -0.783 | 0 | -1.22 | -6.7 | -1.87 |
| O=C(CCc1nnc2n(Cc3ccccc3)c(=O)c3ccccc3n12)N1CCN(c2ccc(Cl)cc2)CC1 | -6.51 | 0 | 6.93 | 7.37 | 1.36 |
| C=C1C[C@]23C[C@H]1CC[C@H]2[C@]1(C)CCC[C@@](C)(C(=O)O)[C@H]1[C@@H]3C(=O)O | 0.303 | 3.6 | 6.9 | -7.76 | -3.46 |
| Cc1ccc(CNS(=O)(=O)c2cc3[nH]c(=O)[nH]c3cc2C)cc1 | 5.67 | 1.22 | 0.846 | -2.27 | 2.24 |
| CC1=C2C(=O)C=C(CO)C2[C@H]2OC(=O)[C@H](C)[C@@H]2[C@@H](OC(=O)Cc2ccc(O)cc2)C1 (stereo partly drawn) | -4.62 | -5.66 | 2.96 | -16.8 | 0.259 |
| COc1ccc(NC(=O)c2ncn3c2C(=O)N(C2CC2)C(C)(C(=O)NC2CCCC2)C3)c(OC)c1 (stereo not drawn) | -4.45 | 4.59 | -2.6 | -5.97 | -3.12 |
| CC1(C)CC[C@]2(C(=O)O)CC[C@]3(C)C(=CCC4[C@@]5(C)C(=O)C[C@H](O)[C@@](C)(CO)C5CC[C@]43C)[C@@H]2C1 (stereo partly drawn) | -0.069 | -1.49 | -0.558 | -14.7 | 1.99 |
| CN1C[C@H](O)C[C@H]1c1nnc2n1CCN(C(=O)c1cccnc1)CC2 | -2.11 | 0.992 | 1.92 | 2.52 | 13.3 |
